Measurements published in PubChem BioAssay (NCI).
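In this assay, cells in 96-well plates receive the compound at five concentrations for 48 hours. Endpoints are linearly interpolated between the surrounding concentrations. Here, GI50 denotes the concentration required for 50% inhibition of growth. TGI marks complete inhibition of growth.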

Each molecule was assayed on NCI-H322M lung (assay: growth of human tumour cells (NCI), 48 h).

SMILES	TGI [µM]	GI50 [µM]
C/C(=N\N(C)C)c1sc(-n2nc(-c3ccccc3)cc2-c2ccccc2)nc1C	> 100	
COc1ccc(/C(=C/c2cc(OC)c(OC)c(OC)c2)[N+](=O)[O-])cc1	3.66	1.78
Cc1ccc(-c2c(C#N)c(N)nc(N3CCOCC3)c2C#N)o1	> 100	44.5
CCOC(=O)/N=c1\ss/c(=N\C(=S)N(C)C)n1-c1ccccc1	> 100	> 100
CC(=O)OC1/C(=C/c2ccc([N+](=O)[O-])cc2)C[C@H]2[C@@H]3CC=C4C[C@@H](OC(C)=O)CC[C@]4(C)[C@H]3CC[C@]12C (some centres undefined)	> 100	
Oc1c(C2=NNC(c3cccs3)C2)ccc2ccccc12 (centres undefined)	> 100	
CN1CCN(c2nc3ccccc3nc2C(=O)c2ccc(Cl)cc2)CC1	> 100	
CCOC(=O)CCC(NC(=O)c1ccc(N=Cc2nc3cc(C(F)(F)F)ccc3nc2-c2ccccc2)cc1)C(=O)OCC (centres undefined)	> 100	> 100
COc1cc2c(cc1OC)C1Cc3ccccc3CCN1CC2 (centres undefined)	> 100	
COc1cc(C2CC(c3cccc(Nc4ccncc4)c3)=NN2c2cc(Cl)cc(Cl)c2)cc(OC)c1OC (centres undefined)	3.03	1.6
N=C(/C=C/c1ccc(-c2cn3cc(/C=C/C(=N)N4CCCC4)ccc3n2)cc1)N1CCCC1	> 100	
FC(F)(F)P1C2C=CC(CC2)C1(F)F (centres undefined)	> 100	
CCOc1cc(/C=N\N(C)C)cc(/C=N\N(C)C)c1O	> 100	
CC(Cc1ccc(Cl)cc1Cl)NO (centres undefined)	> 100	
S=c1[nH]nc(COc2ccc(Cl)cc2)o1	> 100	
CCCCCCCCCCCCCCCC(=O)ON1C(=S)NC(C)(c2ccccc2)C1=S (centres undefined)	> 100	
C1=CN2C[n+]3cccc(OCc4ccccc4)c3N=C2C(OCc2ccccc2)=C1	> 100	
CSc1c(C(=O)Nc2ccc(C)cc2)c(N)nn1-c1ccccc1	> 100	
CCCCCCCCCCCCc1ccc(C(=O)/C=C/C(=O)O)cc1	31.3	17.2
N#C/C(=C1\N=C(c2ccccc2O)Oc2ccccc21)c1ccc([N+](=O)[O-])cc1	> 100	
CCN(CC)CCNC(=O)c1ccc([N+](=O)[O-])cc1OC	> 100	
COCCOCN(C(=O)C1=CCC2(CC1)OCCO2)c1ccccc1I	> 50	
O=C1c2ccccc2-c2c1c1ccccc1c(=O)n2CCO	> 100	

SMILES	TGI [µM]	GI50 [µM]
Cn1cc(-c2ccc(=O)n(Cc3cccc(-c4ncc(OCCN5CCOCC5)cn4)c3)n2)cn1	> 100	> 100
CC(Cl)(/C=C/Cl)C(Cl)/C=C/C(Cl)(CCl)CBr (centres undefined)	24.1	
C[C@@H](c1ccc2nccn2c1)n1nnc2ncc(-c3cnn(C)c3)nc21	> 100	> 100
O=C1C=C[C@]2(C[C@@H](c3cccc(C(F)(F)F)c3)O[C@@H](c3cccc(C(F)(F)F)c3)O2)O1	26.8	10.3
CCOC(=O)c1cnc(SCc2ccc(Cl)c(Cl)c2)nc1N1CC1	16.9	4.86
O=C(c1ccccc1)c1nn(-c2ccc(Cl)cc2)c2nc3nc(-c4ccccc4)cc(=O)n3nc12	67.4	22.7
CC(NC1=CC(=O)c2ncccc2C1=O)C(O)c1ccccc1 (centres undefined)	24.5	
S=C(NNC1=NCCCN1)Nc1ccccc1	> 100	
O=C1/C(=C\c2ccc([N+](=O)[O-])cc2)Sc2scc(-c3ccc(O)c(O)c3)[n+]21	52.5	
N#Cc1ccccc1NC(=O)C(=O)C(C(=O)c1ccccc1-c1ccccc1)C1OC(=O)c2ccccc21 (centres undefined)	35.2	
O=C(O)c1cccc(S(=O)(=O)NN2C(=O)CSC2c2ccccc2)c1 (centres undefined)	> 100	
COc1cc[nH]c1/C=C1\C(=O)Nc2ccc(F)c(C#C[C@@H](O)[C@@H](N)[C@@H](C)O)c21	2.34	0.502
O/N=c1/ccn(O)c2ccccc12	4.13	
CCOC(=O)N1CCN(Cc2cc(=O)n3cc(C)ccc3n2)CC1	> 100	
COc1cc2cc(Oc3ccc(NC(=O)Nc4ccc(F)c(C(F)(F)F)c4)cc3)c(C)nc2cc1OCCN1CCCCC1	3.05	1.67
O=C(CCCc1c[nH]c2ccccc12)NC1CC(=O)c2c(Br)sc(Br)c21 (centres undefined)	43.6	13.1
Cc1cc(C)nc(NS(=O)(=O)c2ccc(Nc3c4ccccc4nc4c(C(=O)Nc5ccc(S(N)(=O)=O)cc5)cccc34)cc2)n1	> 100	
CC(C)C1CC=NN1C(=O)OC(C)(C)C (centres undefined)	> 100	
Cc1cc2nc(N3C(=O)/C(=C/c4cccc([N+](=O)[O-])c4)N=C3c3ccccc3)sc2cc1C	> 100	
O=C1C2CC(Cl)C(SSC3CC4C(=O)N(SC(Cl)(Cl)C(Cl)Cl)C(=O)C4CC3Cl)CC2C(=O)N1SC(Cl)(Cl)C(Cl)Cl (centres undefined)	9.46	
N#Cc1cccc(C2ON=C(c3ccc([N+](=O)[O-])cc3)N2C23CC4CC(CC(C4)C2)C3)c1 (centres undefined)	> 100	
O=C1C=C(N2CCCC2)C=C(N2CCCC2)C1	> 100	
